Assay [1] has as its system RAW-Dual. Put plainly: NF-kB SEAP reporter activity, fold change vs agonist alone; cytotoxicity flag (confluency mask): not cytotoxic; higher = enhanced NF-kB activity. In outline:
(§1)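 Cytotoxic wells were those whose IncuCyte confluency was below 70% of agonist controls in both mask sets. The cells were RAW-Dual macrophages at 50,000 cells/well in DMEM on 384-well plates, dosed with 50 nL of library stock by pin tool, stimulated with a PRR agonist 1 h later, and kept at 37 °C, 5% CO2 for 20 hours. IRF and NF-κB reporter activity, as fold change over agonist-alone wells, came from supernatant read by QuantiLuc luminescence and QuantiBlue absorbance, respectively.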

The test system of assay [2] is RAW-Dual. Put plainly: NF-kB SEAP reporter activity, fold change vs agonist alone; higher = enhanced NF-kB activity. The note with it: library stock concentration (final ~1000-fold dilution): 10 mM. In outline:
as §1

For assay [3], the system named is RAW-Dual. Put plainly: NF-kB SEAP reporter activity, fold change vs agonist alone; cytotoxicity flag (confluency mask): cytotoxic (confluency <70% of control); higher = enhanced NF-kB activity. The gist of the method: as §1
[4] abbreviates: agonist: ODN 1826 (TLR9) 0.5 ug/mL.
Setting [5] is: agonist: Pam2CSK4 (TLR2/6) 0.1 ug/mL.
The mark [6] stands for this setting: agonist: Pam3CSK4 (TLR2/1) 0.1 ug/mL.
Where [7] appears, read: cytotoxicity flag (confluency mask): not cytotoxic, agonist: MPLA (TLR4) […].
The mark [8] stands for this setting: cytotoxicity flag (confluency mask): not cytotoxic, agonist: Imiquimod (TLR7) […].
Where [9] appears, read: cytotoxicity flag (confluency mask): cytotoxic (confluency <70% of control), agonist: Imiquimod (TLR7) […].
The mark [10] stands for this setting: cytotoxicity flag (confluency mask): cytotoxic (confluency <70% of control), agonist: MPLA (TLR4) […].

Where “and” joins values, the source holds several entries; their conditions need not be identical. Equal entries are not always repeated. The full ranking holds about 2,900 compounds; the median of “NF-kB SEAP reporter activity, fold change vs agonist alone” is about 0.99, and the highest 2% start at about 2.6. The list shows a part of the results.

With `CC(C)CC(NC(=O)C(O)C(N)Cc1ccccc1)C(=O)O` (stereo unspecified) (library stock concentration (final ~1000-fold dilution): 10 mM), the “NF-kB SEAP reporter activity” value was 0.885 in assay [1] (agonist: LPS (TLR4) 0.1 ug/mL), 0.978 in assay [1] (setting [4]), 1.05 in assay [1] (setting [5]) and 0.986 in assay [1] (setting [6]).
`C=CCNC(N)=S` (library stock concentration (final ~1000-fold dilution): 10 mM): the “NF-kB SEAP reporter activity” value is 0.949 and 1.31 in assay [1] (agonist: LPS (TLR4) 0.1 ug/mL); 1 and 1.13 in assay [1] (setting [4]); 0.994 and 1.09 in assay [1] (setting [5]); 1.01 and 1.08 in assay [1] (setting [6]).
`C=CCNC(N)=S`: the “NF-kB SEAP reporter activity” value in assay [2] (setting [7]) came to 1.01.
For `COc1cccc(-c2cc(=O)c3ccccc3o2)c1N`, the “NF-kB SEAP reporter activity” value came out at 0.644 in assay [2] (setting [8]) and 0.594 in assay [2] (setting [7]).
As to `COc1cccc(-c2cc(=O)c3ccccc3o2)c1N` (library stock concentration (final ~1000-fold dilution): 10 mM), the “NF-kB SEAP reporter activity” value was 0.529 in assay [1] (agonist: LPS (TLR4) 0.1 ug/mL), 0.771 in assay [1] (setting [4]), 0.432 in assay [1] (setting [5]) and 0.632 in assay [1] (setting [6]).
With `Cc1cc(CS(=O)(=O)c2ccccc2)cc(OCc2ccc(CN3CCCC3CO)cc2)c1` (stereo unspecified), the “NF-kB SEAP reporter activity” value in assay [2] (setting [8]) turned out to be 0.658; in assay [2] (setting [7]), 1.18.
Take `Cc1cc(CS(=O)(=O)c2ccccc2)cc(OCc2ccc(CN3CCCC3CO)cc2)c1` (stereo unspecified) (library stock concentration (final ~1000-fold dilution): 10 mM): the “NF-kB SEAP reporter activity” value in assay [1] (agonist: LPS (TLR4) 0.1 ug/mL) turned out to be 0.875; in assay [1] (setting [4]) it was 0.198; in assay [1] (setting [5]), 1.06; in assay [1] (setting [6]) it was 0.976.
In the case of `CCc1cc(Nc2nccc(-c3c(-c4ccc(OC)c(C(=O)Nc5c(F)cccc5F)c4)nc4ccccn34)n2)c(OC)cc1N1CCC(N2CCN(S(C)(=O)=O)CC2)CC1`, the “NF-kB SEAP reporter activity” value stood at 1.04 in assay [2] (setting [8]) and 1.31 in assay [2] (setting [7]).
In the case of `CCc1cc(Nc2nccc(-c3c(-c4ccc(OC)c(C(=O)Nc5c(F)cccc5F)c4)nc4ccccn34)n2)c(OC)cc1N1CCC(N2CCN(S(C)(=O)=O)CC2)CC1` (library stock concentration (final ~1000-fold dilution): 10 mM), the “NF-kB SEAP reporter activity” value stood at 1.06 in assay [1] (agonist: LPS (TLR4) 0.1 ug/mL), 1.57 in assay [1] (setting [4]), 0.741 in assay [1] (setting [5]) and 0.924 in assay [1] (setting [6]).
In the case of `Cc1nc(Nc2n[nH]c3c2CN(C(=O)NC(CN(C)C)c2ccccc2)C3(C)C)c2sccc2n1` (stereo unspecified), the results for the “NF-kB SEAP reporter activity” value in assay [2] (setting [9]) and in assay [2] (setting [10]) were 0.392 and 0.218, respectively.
On to `Cc1nc(Nc2n[nH]c3c2CN(C(=O)NC(CN(C)C)c2ccccc2)C3(C)C)c2sccc2n1` (stereo unspecified) (library stock concentration (final ~1000-fold dilution): 10 mM), for which the “NF-kB SEAP reporter activity” value in assay [3] (agonist: LPS (TLR4) 0.1 ug/mL) was found to be 0.277; in assay [3] (setting [4]), 0.215; in assay [3] (setting [5]), 0.0634; in assay [3] (setting [6]), 0.15.
On to `O=C1c2cccc3c2C(CCC3)CN1C1CN2CCC1CC2` (stereo unspecified), for which the results for the “NF-kB SEAP reporter activity” value in assay [2] (setting [8]) and in assay [2] (setting [7]) were 0.886 and 1.17, respectively.
Take `O=C1c2cccc3c2C(CCC3)CN1C1CN2CCC1CC2` (stereo unspecified) (library stock concentration (final ~1000-fold dilution): 10 mM): the “NF-kB SEAP reporter activity” value worked out at 1.5 in assay [1] (agonist: LPS (TLR4) 0.1 ug/mL), 0.937 in assay [1] (setting [4]), 0.587 in assay [1] (setting [5]) and 0.339 in assay [1] (setting [6]).
For the compound `O=C(Nc1ccccc1C(=O)NC1CCCCNC1=O)c1cc2ccccc2s1` (stereo unspecified) (library stock concentration (final ~1000-fold dilution): 10 mM), the “NF-kB SEAP reporter activity” value in assay [1] (agonist: LPS (TLR4) 0.1 ug/mL) was determined as 2.62.
Turning to `COc1ccc2c(c1)c(CC(=O)O)c(C)n2C(=O)c1ccc(Cl)cc1`, in assay [2] (setting [8]), the “NF-kB SEAP reporter activity” value came to 1.2.
As to `COc1ccc2c(c1)c(CC(=O)O)c(C)n2C(=O)c1ccc(Cl)cc1` (library stock concentration (final ~1000-fold dilution): 10 mM), the “NF-kB SEAP reporter activity” value is 1.12 and 1.16 in assay [1] (agonist: LPS (TLR4) 0.1 ug/mL); 1.03 and 1.01 in assay [1] (setting [4]); 0.916 and 0.929 in assay [1] (setting [5]); 0.933 and 1.08 in assay [1] (setting [6]).
As for `Nc1nc2ccc(OC(F)(F)F)cc2s1`, the entries for the “NF-kB SEAP reporter activity” value in assay [2] (setting [8]) and in assay [2] (setting [7]) were 0.815 and 1.02, respectively.
Turning to `Nc1nc2ccc(OC(F)(F)F)cc2s1` (library stock concentration (final ~1000-fold dilution): 10 mM), the “NF-kB SEAP reporter activity” value in assay [1] (agonist: LPS (TLR4) 0.1 ug/mL) came to 0.806; in assay [1] (setting [4]) it was 0.803; in assay [1] (setting [5]), 0.803; in assay [1] (setting [6]), 0.878.
As to `CNC(=O)c1cc(Oc2ccc(NC(=O)Nc3cc(C(C)(C)C)nn3-c3ccc4ncccc4c3)c(F)c2)ccn1`, the entries for the “NF-kB SEAP reporter activity” value in assay [2] (setting [8]) and in assay [2] (setting [7]) were 0.665 and 0.84, respectively.
As for `CNC(=O)c1cc(Oc2ccc(NC(=O)Nc3cc(C(C)(C)C)nn3-c3ccc4ncccc4c3)c(F)c2)ccn1` (library stock concentration (final ~1000-fold dilution): 10 mM), the “NF-kB SEAP reporter activity” value in assay [1] (agonist: LPS (TLR4) 0.1 ug/mL) came to 0.224; in assay [1] (setting [4]), 0.923; in assay [1] (setting [5]), 0.0923; in assay [1] (setting [6]) it was 0.401.
`CC(C)=CCc1c(O)ccc(C(=O)/C=C/c2ccc(O)cc2)c1O` (library stock concentration (final ~1000-fold dilution): 10 mM): the “NF-kB SEAP reporter activity” value in assay [3] (agonist: LPS (TLR4) 0.1 ug/mL) is 0.34; in assay [3] (setting [4]), 0.583; in assay [3] (setting [5]), 0.249; in assay [3] (setting [6]), 0.236.
Turning to `CC(C)=CCc1c(O)ccc(C(=O)/C=C/c2ccc(O)cc2)c1O`, the “NF-kB SEAP reporter activity” value in assay [2] (setting [9]) was found to be 0.43; in assay [2] (setting [10]), 0.986.
As to `NC(CSCCB(O)O)C(=O)O` (stereo unspecified), the “NF-kB SEAP reporter activity” value in assay [2] (setting [8]) came to 0.946; in assay [2] (setting [7]), 0.962.
For the compound `NC(CSCCB(O)O)C(=O)O` (stereo unspecified) (library stock concentration (final ~1000-fold dilution): 10 mM), the “NF-kB SEAP reporter activity” value in assay [1] (agonist: LPS (TLR4) 0.1 ug/mL) was determined as 0.97; in assay [1] (setting [4]) it was 0.912; in assay [1] (setting [5]), 0.827; in assay [1] (setting [6]) it was 1.06.
Turning to `CN1CC(=O)N2C(Cc3c([nH]c4ccccc34)C2c2ccc3c(c2)OCO3)C1=O` (stereo unspecified), the results for the “NF-kB SEAP reporter activity” value in assay [2] (setting [8]) and in assay [2] (setting [7]) were 0.955 and 0.984, respectively.
As for `CN1CC(=O)N2C(Cc3c([nH]c4ccccc34)C2c2ccc3c(c2)OCO3)C1=O` (stereo unspecified) (library stock concentration (final ~1000-fold dilution): 10 mM), the “NF-kB SEAP reporter activity” value stood at 1.17 in assay [1] (agonist: LPS (TLR4) 0.1 ug/mL), 1.18 in assay [1] (setting [4]), 1.13 in assay [1] (setting [5]) and 1.11 in assay [1] (setting [6]).
Regarding `CS(=O)(=O)O.Cc1c(O)cccc1C(=O)NC(CSc1ccccc1)C(O)CN1CC2CCCCC2CC1C(=O)NC(C)(C)C` (stereo unspecified) (library stock concentration (final ~1000-fold dilution): 10 mM), the “NF-kB SEAP reporter activity” value in assay [1] (agonist: LPS (TLR4) 0.1 ug/mL) stood at 4.08.
